Consider 47 compounds from PubChem BioAssay AID1508624 (National Center for Advancing Translational Sciences (NCATS), 2021).

Screen size: about 48,000 compounds; about 120 (0.25%) were called active. About 4% were inconclusive and are not listed. Calls come from the whole dose curve; as a rule, active = well fitted activation curve with a large enough effect; inconclusive = small, poorly fitted or top-dose-only effect, or another doubt; inactive = no such curve, though single readings can be large or run the other way. The list shows a part of the results, in another mix than the full data. The source gives no active or inactive call for entries shown without one.
Potency is the fitted concentration of half-maximal effect.

A short description of this experiment: Primary qHTS for Identification of Small Molecule Activators of Huntingtin-Antisense Promoter Activity. Note: nearly all actives have a fitted effect of over 55% in size. Conditions: HEK293 HTT-AS promoter firefly luciferase reporter, 24 h; activity change, positive = activation: at 57.5 µM (top of the series), percent change from vehicle, -100% = no light. An outline of the steps:
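Luminescence was read after Dual-Glo reagent and a 10 min room-temperature incubation. Values were normalized to vehicle (0% activity) and zero RLU (-100% activity). Reporter HEK293 cells had been exposed to compounds (up to 57.5 uM final) for 24 h.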
In general terms: Quantitative high-throughput screening tests each substance at several concentrations.
With `COc1ccc(CNC(=O)CCc2c(C)nn(-c3ccc(N4CCCC4)nn3)c2C)c(OC)c1`, the activity change, positive = activation is -0.998%. On the same count and under the same terms, under `Cc1ccc(NC(=O)c2c(C)oc3ccc(O)c(CN4CCCCC4)c23)cc1` stands -16.8%; under `CCc1cccc(C)c1NC(=O)C1CCN(S(=O)(=O)Cc2ccccc2)CC1`, -11%; under `CCCOc1ccc(NC(=O)CC2C(=O)N(c3ccc(C)cc3)C(=O)N2Cc2cccc(OC)c2)cc1` (configuration not stated), 1.64%.

Regarding `CC(C)Oc1ccc(CNC(=O)c2cnc3sc(N4CCCCC4)nn3c2=O)cc1`, the activity change, positive = activation came to 1.05%. Same read-out and setting: next, `COc1cc2c(-c3ccc(C)cc3)nc3c(c(C)nn3-c3ccccc3)c2cc1OC`: 0.0315%. Regarding `COc1cc(NC(=O)c2cc(-c3ccc(Cl)c(Cl)c3)on2)cc(OC)c1OC`, the activity change, positive = activation stood at 9.53%. The same measure, in the same setting: under `COc1ccc(N2CCN(C(=O)C3CCN(S(=O)(=O)Cc4ccccc4)CC3)CC2)cc1` stands -1.74%; under `COc1ccc(CN2COc3ccc4c(-c5ccc(OC)cc5)cc(=O)oc4c3C2)cc1`, -11.1%. On the same count and under the same terms, next, `CCOc1ccc(C2C(=O)N(C3CCCCCC3)CC(=O)N2CCc2ccccc2)cc1OC` (configuration not stated): -22.6%; `CCC(CO)Nc1ncnc2c1cnn2-c1ccc(C)cc1` (configuration not stated): inactive: -45.7%; `CC1CCN(C(=O)c2cc(-c3cccc(Cl)c3)on2)CC1`: 40%. Still for that read-out and setting: next, `Cc1ccc(CN2CCN(C3CCN(S(=O)(=O)c4ccc(C)cc4)CC3)C(=O)C2=O)cc1`: 0.164%; `Cc1ccc(CNC(=O)CCc2c(C)nn(-c3ccc(N4CCCC4)nn3)c2C)cc1`: -6.37%; `CCOC(=O)C1CCN(CCC(=O)Nc2ccccc2Cl)CC1`: -7.88%. As to `Cc1ccc(C)c(N2CCN(C(=O)c3ccc4c(c3)c(C)c(C)n4C)CC2)c1`, the “activity change, positive = activation” value is inactive: -27.2%. The same measure, in the same setting: next, `Cc1cc(C)c(Cn2c3ccccc3c3cnn(CC(=O)N4CCCCC4)c(=O)c32)c(C)c1`: inactive: -24%; `COc1ccc(N(C(=O)/C=C\C(=O)Nc2ccc(Cl)cc2)C(C(=O)NCc2ccco2)c2ccc(C)cc2)cc1` (configuration not stated): -39.8%. Still for that read-out and setting: under `Cn1c(=O)c2c(-c3ccccc3)n3c(c2n(C)c1=O)C(c1ccccc1[N+](=O)[O-])Nc1ccccc1-3` (configuration not stated) stands -4.46%; under `Fc1ccc(NCc2cccn2-c2nnc(N3CCOCC3)s2)cc1`, inactive: 4.18%.

Turning to `CCOc1ccccc1NS(=O)(=O)c1ccc2c(c1)CC(C)N2C(=O)C1CCC1` (configuration not stated), the activity change, positive = activation is -39.6%.

On to `CCCN1CCN(CCCNC(=O)c2c(C)nn(-c3ccc(F)cc3)c2-n2cccc2)CC1`, for which the “activity change, positive = activation” value is inactive: -0.235%.

For `COC(=O)c1cc2oc3ccccc3c2n1CC(=O)Nc1ccc(C)cc1C`, the activity change, positive = activation was found to be 7.94%. Same read-out and setting: under `Cc1ccc(N2C(=O)N(Cc3cccc(Cl)c3)c3ccccc3S2(=O)=O)cc1` stands inactive: -27.1%; under `CO[C@H]1C[C@@H]2CC[C@@H](C)[C@@](O)(O2)C(=O)C(=O)N2CCCC[C@@H]2C(=O)O[C@H]([C@H](C)C[C@@H]2CC[C@H](OP(C)(C)=O)[C@H](OC)C2)CC(=O)[C@H](C)C=C(C)[C@@H](O)[C@@H](OC)C(=O)[C@H](C)C[C@H](C)C=CC=CC=C1C`, inactive: -11.9%; under `CCCOc1ccc(CNC(=O)c2cc3ccccn3n2)cc1`, 48.1%. Same read-out and setting: under `COc1ccc(-c2cc(C(=O)Nc3cnn(Cc4ccc(F)cc4)c3)no2)cc1OC` stands 0.41%. As for `COc1cc2c(cc1NC(=O)C(C)Oc1ccccc1)oc1ccccc12` (configuration not stated), the Potency was active: 3.98 µM.

For `CCOc1ccc(NC(=O)CC2C(=O)N(c3cccc(C)c3)C(=O)N2Cc2ccco2)cc1` (configuration not stated), the activity change, positive = activation was determined as 0.866%. On the same count and under the same terms, next, `COc1ccccc1NC(=O)C1=C(C)Nc2ncnn2C1c1ccccn1` (configuration not stated): -6.64%; `CCOc1ccccc1NS(=O)(=O)c1ccc2oc(=O)c3ncn(C)c3c2c1`: -5.74%; `Cc1nc(SCC(=O)OC(C)(C)C)c2c3c(sc2n1)CCCC3`: -3.4%.

Consider `Cc1ccc(C2Nc3ccccc3-n3c(-c4ccccc4)c4c(=O)n(C)c(=O)n(C)c4c32)cc1` (configuration not stated), for which the activity change, positive = activation was -6%. The same measure, in the same setting: next, `COc1cccc(NC(=O)c2ccc3c(=O)n4nc(Nc5ccccc5OC)sc4nc3c2)c1`: inactive: -33.6%; `Cc1oc2ccc(O)c(CN3CCC(C)CC3)c2c1C(=O)Nc1ccccc1`: -13.4%. Consider `CCc1nc2sc3c(N4CCCCC4)ncnc3c2c2c1CCCC2`, for which the activity change, positive = activation was -4.17%. Still for that read-out and setting: under `Cc1cc(C)cc(NS(=O)(=O)c2ccc(-c3cc(C)no3)cc2)c1` stands -33.7%; under `Cn1c(=O)c2c(-c3ccccc3)n3c(c2n(C)c1=O)C(c1cc(Cl)ccc1O)Nc1ccccc1-3` (configuration not stated), -7.05%; under `O=C(Nc1ccc2oc(-c3ccc(Br)cc3)nc2c1)c1cc2ccccc2o1`, inactive: 24.5%. Still for that read-out and setting: next, `Cc1c(NS(=O)(=O)c2ccc(C(C)(C)C)cc2)c(=O)n(-c2ccccc2)n1C`: -7.26%; `Cc1ccc(C)c(N2CCN(C(c3ccccc3)c3nnc(-c4ccccc4)o3)CC2)c1` (configuration not stated): -15.5%; `COc1ccc(-c2cc(C(=O)Nc3c(C)nn(Cc4ccccc4C)c3C)no2)cc1`: -14.6%.

Regarding `COc1ccc(NC(=O)c2cnc3sc(N4CCOCC4)nn3c2=O)c(OC)c1`, the activity change, positive = activation is 3.04%. Take `Cn1cnc2c(=O)oc3ccc(S(=O)(=O)Nc4ccc(F)cc4)cc3c21`: the activity change, positive = activation stood at 3.54%. The same measure, in the same setting: under `CCCCN(CC)CCCNC(=O)Nc1sc2nc3n(c(=O)c2c1C)CCC(C)CC3` (configuration not stated) stands -15.3%; under `CC(C)CCNC(=O)c1cnc2sc(N3CCCCC3)nn2c1=O`, 2.04%. The same measure, in the same setting: under `Cc1c(NC(=O)Nc2ccccc2C(F)(F)F)sc2nc3n(c(=O)c12)CCC(C)CC3` (configuration not stated) stands 7.22%.
